From PubChem BioAssay AID1963576 (National Center for Advancing Translational Sciences (NCATS), 2024) come the findings set out here.

In all, about 46,000 compounds went through this assay and about 60 (0.1%) were called active. About 3% were inconclusive and are not listed. Calls follow the shape of the dose curve; as a rule, active = well fitted inhibition curve with a large enough effect; inconclusive = small, poorly fitted or top-dose-only effect; inactive = no such curve, though single readings can be large or run the other way. The list shows a part of the results.

The experiment can be described thus: Primary qHTS assay for Inhibitors of ovarian cancer metastasis using an organotypic tumor microenvironment (TME) model. Also: nearly all actives have a fitted effect of over 65% in size.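 As to activity change, negative = inhibition: plate controls were DMSO wells for no effect and tomatine positive control wells for full effect.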 Particulars: SKOV3ip1-GFP adhesion/invasion on 3D omental model, fluorescence; series mostly up to 45.8 µM; activity change, negative = inhibition: at the top concentration. An outline of the steps: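 Adhesion/invasion was scored as fixed GFP-labeled SKOV3ip1 cell counts (488/509 nm), normalized to DMSO and tomatine controls. Cancer cells in serum-free medium, with four compound doses (0.36-46 umol/L), sat 2 hr at RT then 16 hr at 37 C on a 48 hr fibroblast/mesothelial/ECM culture.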
Background: In qHTS, concentration-response curves come from the screen itself.
On to `CCOC(=O)c1ccc(NC(=O)c2cccn(Cc3ccc(C)cc3)c2=O)cc1`, for which the “activity change, negative = inhibition” value is inactive: 6.9%.

Take `C[C@]12Cc3cn[nH]c3C[C@@H]1CC[C@@H]1[C@H]2CC[C@@]2(C)[C@H]1CC[C@]2(C)O`: the “activity change, negative = inhibition” value was inactive: -6.09%.

As for `Cc1ccc(Cn2cccc(C(=O)Nc3nnc(C)s3)c2=O)cc1`, the “activity change, negative = inhibition” value is inactive: 2.87%.

Regarding `CCN(CC)C(=O)c1ccc(NC(=O)Cn2nc(-c3ccc(C)cc3)c3ccccc3c2=O)cc1`, the “activity change, negative = inhibition” value was inactive: 5.81%.

For the compound `C[C@]12COC(=O)C[C@@H]1CC[C@@H]1[C@H]2CC[C@@]2(C)[C@H]1CC[C@]2(C)O`, the “activity change, negative = inhibition” value is inactive: -1.01%.

With `O=c1[nH]c2ccccc2n1CCCN1CCC(n2c(=O)[nH]c3cc(Cl)ccc32)CC1`, the “activity change, negative = inhibition” value was inactive: 13.7%.

Take `Cc1ccc(NC(=O)N(Cc2ccc3c(c2)OCO3)C2CCN(Cc3ccccc3)CC2)cc1Cl`: the “activity change, negative = inhibition” value was inactive: -8.8%.

As to `N#Cc1cccc(NC(=O)CSc2nc3c(cc2C#N)N2CCC3CC2)c1`, the “activity change, negative = inhibition” value was inactive: 1.41%.

Turning to `Cc1nnc(NC(=O)c2cccn(Cc3cccc([N+](=O)[O-])c3)c2=O)s1`, the “activity change, negative = inhibition” value was inactive: 0.613%.

Turning to `COc1ccc(NC(C)=O)cc1NC(=O)c1cccn(Cc2ccccc2)c1=O`, the “activity change, negative = inhibition” value is inactive: -8.24%.

With `O=S(=O)(CC1CS1)c1ccc(Oc2ccccc2)cc1` (centres undefined), the “activity change, negative = inhibition” value was inactive: -14.8%.

Take `CCOc1ccccc1CN(CCc1ccc2c(c1)OCO2)Cc1ccc(CC)cc1`: the outcome was inactive.

On to `CSc1ncc(C(=O)Nc2ccc(Cl)cc2C(=O)c2ccccc2)c(C)n1`, for which the “activity change, negative = inhibition” value is inactive: 0.652%.

Consider `Cc1ccccc1-n1c(/C=C/c2ccc(O)cc2)nc2ccccc2c1=O`, for which the “activity change, negative = inhibition” value was inactive: -9.32%.

Turning to `CC(C)(C)c1ccc(OCC(=O)Nc2ccc(Cl)cc2C(=O)c2ccccc2)cc1`, the “activity change, negative = inhibition” value was inactive: -4.28%.

Turning to `CC(=O)N(C)c1cccc(-c2ccnc3c(C(=O)c4cccs4)cnn23)c1`, the “activity change, negative = inhibition” value is inactive: -8.26%.

`O=c1c2ccccc2nc(/C=C/c2ccccc2O)n1-c1ccc(Br)cc1`: the “activity change, negative = inhibition” value was inactive: -13.4%.

`Cc1ccc(-n2nc(C)c3c2NC(=O)CSC3c2ccc(O)cc2)cc1Cl` (centres undefined): the result was inactive.

Turning to `CCCC12CN3CC(C)(CN(C1)C3c1ccccn1)C2=O` (centres undefined), the “activity change, negative = inhibition” value was inactive: -12.9%.

As to `O=C1CC(c2ccc(F)cc2)c2c(c3ccccc3oc2=O)O1` (centres undefined), the compound was classed as inactive.

With `COc1ccc(CCNCc2ccc3c(c2)n(C)c(=O)n3C)cc1`, the “activity change, negative = inhibition” value is inactive: 3.57%.

For the compound `COCC1(CO)C(=O)C2CCN1CC2` (centres undefined), the “activity change, negative = inhibition” value was inactive: -7.01%.

Regarding `O=C(Nc1ccc(Br)cc1C(=O)c1ccccc1Cl)c1ccccc1F`, the “activity change, negative = inhibition” value is inactive: -5.61%.

For `CC(C)(C)[C@]1(O)C[C@@H]2OC(=O)C[C@@]23C(=O)O[C@@H]2OC(=O)[C@H](O)C213` (some centres undefined), the “activity change, negative = inhibition” value is inactive: -0.991%.

In the case of `N#Cc1cc2c(nc1SCC(=O)Nc1ccc(F)c(Cl)c1)C1CCN2CC1`, the call was inactive.

Turning to `N#Cc1cccc(NC(=O)c2sc3nc4c(cc3c2N)N2CCC4CC2)c1`, the “activity change, negative = inhibition” value was inactive: -22.6%.

Take `Cc1oc(-c2ccccc2Cl)nc1CN1C(=O)CN=C(c2ccccc2)c2cc(Cl)ccc21`: the “activity change, negative = inhibition” value is inactive: 0.984%.

Turning to `COc1ccc(NC(=O)CCc2nc(C3=CCN(Cc4cccc(Cl)c4)CC3)no2)cc1OC`, the compound was classed as inactive.

Consider `CCOc1ccc(NC(=O)c2cccn(Cc3cccc(Cl)c3)c2=O)cc1`, for which the result was inactive.

Regarding `N#Cc1cc([N+](=O)[O-])ccc1NC(=O)c1cccn(Cc2cccc(F)c2)c1=O`, the “activity change, negative = inhibition” value was inactive: -1.39%.

For the compound `O=C(Nc1ccc2c(c1)OCCO2)c1cccn(Cc2cccc([N+](=O)[O-])c2)c1=O`, the “activity change, negative = inhibition” value is inactive: -4.78%.

Turning to `CCOc1ccc(-n2c(/C=C/c3ccccc3)nc3ccccc3c2=O)cc1`, the “activity change, negative = inhibition” value is inactive: -4.03%.

For `N#Cc1cc2c(nc1SCC(=O)Nc1cccc(F)c1)C1CCN2CC1`, the outcome was inactive.

For `COC1=C[C@@H]2[C@@H]3Cc4ccc(OC)c(O)c4[C@]2(CCN3C)CC1=O`, the “activity change, negative = inhibition” value is inactive: 24.4%.

In the case of `C[C@]12CC[C@H]3[C@@H](CCC4=CC(=O)CC[C@@]43C)[C@H]1CC[C@H]2O`, the “activity change, negative = inhibition” value was inactive: -9.27%.

Turning to `CSc1ccc(C(c2c(O)c3ccccc3oc2=O)c2c(C)n(C)n(-c3ccccc3)c2=O)cc1` (centres undefined), the “activity change, negative = inhibition” value was inactive: 7.08%.

As to `CN1CCN(c2csc3ccc(F)cc3c2=O)CC1`, the “activity change, negative = inhibition” value was inactive: 0.449%.

Turning to `CN(C)CCc1ccc(O)cc1`, the “activity change, negative = inhibition” value is inactive: 1.76%.

As for `O=C(c1ccc2c(c1)N(Cc1ccc(F)cc1Cl)C(=O)c1ccccc1S2)N1CCC2(CC1)OCCO2`, the “activity change, negative = inhibition” value is inactive: 4%.

As for `Cc1ccc(NC(=O)CN2C(=O)CN=C(c3ccccc3)c3ccccc32)c(C)c1`, the “activity change, negative = inhibition” value is inactive: -5.06%.

Turning to `Nc1c(C(=O)Nc2ccc(OC(F)(F)F)cc2)sc2nc3c(cc12)N1CCC3CC1`, the “activity change, negative = inhibition” value is inactive: -3.31%.

For `COc1cc(/C=C/c2nc3ccccc3c(=O)n2-c2ccc(Br)c(C)c2)ccc1O`, the compound was classed as inactive.

As for `CCCCc1nc2ccccc2c(=O)n1-c1cccc(OC)c1`, the “activity change, negative = inhibition” value is inactive: 0.106%.

As to `COc1ccccc1-n1c(/C=C/c2ccccc2)nc2ccccc2c1=O`, the compound was classed as inactive.

Regarding `Cn1c(CCCC(=O)O)nc2cc(N(CCCl)CCCl)ccc21`, the “activity change, negative = inhibition” value was inactive: -18.8%.

In the case of `COc1ccc(-c2nc(CN3C(=O)CN=C(c4ccccc4)c4ccccc43)c(C)o2)cc1OC`, the “activity change, negative = inhibition” value is inactive: -5.84%.

As to `CCc1ccc(OCC(=O)N2CCN(CCc3ccccn3)CC2)cc1`, the “activity change, negative = inhibition” value is inactive: -3.79%.

Take `C[C@@H]1[C@@H](CC(C[C@H]2O[C@@H]3O[C@]4(C)CC[C@@H]5[C@H](C)CC[C@@H]([C@H]2C)[C@@]35OO4)C[S+](=O)([O-])c2ccc(COC(=O)N(C)C)cc2)O[C@@H]2O[C@]3(C)CC[C@H]4[C@H](C)CC[C@@H]1[C@@]24OO3` (some centres undefined): the “activity change, negative = inhibition” value was inactive: -4.82%.

For `Cc1oc(-c2ccc(Cl)cc2)nc1CN1C(=O)CN=C(c2ccccc2)c2cc(Cl)ccc21`, the “activity change, negative = inhibition” value is inactive: -5.47%.
